# Test results taken from PubChem BioAssay AID651820 (National Center for Advancing Translational Sciences (NCATS), 2012).
# Among all 340,000 compounds or so, about 12,000 (3.5%) were called active. Inconclusive means that the source gave no clear call. Such entries were picked first, then a sample of the others. The call rests on the fitted dose curve; in most records, active means well fitted inhibition curve with a large enough effect; inconclusive means small, poorly fitted or top-dose-only effect, or another doubt; inactive means no such curve, though single readings can be large or run the other way. Potencies of inconclusive entries are left out as doubtful fits.
# Assay: qHTS Assay for Inhibitors of Hepatitis C Virus (HCV)
# Conditions: Huh7.5.1 HCVcc-Cre (HCVcc is cell-culture hepatitis C virus) infection, luciferase reporter, 44 h; series mostly up to 41.8 µM
# In short: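 Cells seeded at 1,000/well and cultured 4 h, then compounds added followed by HCVcc-Cre virus (~0.5 moi). After 44 h further culture, luciferase substrate was added, plates held 15 min at room temperature, and luminescence read for 15 sec.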
# Potency means the concentration at half of the fitted maximal effect; tags describe the fitted curve by direction and shape.
row,SMILES,Potency
1,O=C(NNc1nc2ccccc2s1)Nc1ccc(Cl)c(Cl)c1,inactive
2,O=C(Cc1n[nH]c(=O)c2ccccc12)OCC(=O)c1ccc(F)c(F)c1,inactive
3,Cc1cc(C)n(Cc2ccc(C(=O)NN)o2)n1,"inconclusive [inhibitor, single point]"
4,COCCn1c(C)c(C)c2c(NCCc3ccccc3)ncnc21,"inconclusive [inhibitor, single point]"
5,O=C(O)c1cccc2c1C(=O)c1ccccc1C2=O,inactive
6,CC(C)(C)c1ccc(C(=O)NC(=S)Nc2sc3c(c2C#N)CCC3)cc1,"inconclusive [inhibitor, single point]"
7,CCc1nc2ccc(C(=O)Nc3nnc(C)s3)cc2nc1CC,"inconclusive [inhibitor, full curve]"
8,CCN1C(=O)NC2=C(C(=O)c3ccccc32)C1c1ccccc1F (stereo not given),"inconclusive [inhibitor, full curve, poor fit]"
9,NCCc1nnc(SCC(=O)c2ccc(Cl)cc2)o1,inactive
10,CC(C)NC1CCC(Nc2ccnc3cc(Cl)ccc23)CC1 (stereo not given),active: 2.82 µM
11,Clc1ccc(COC(Cn2ccnc2)c2ccc(Cl)cc2Cl)c(Cl)c1 (stereo not given),"inconclusive [inhibitor, partial curve]"
12,N=c1ccn2c(n1)O[C@H]1[C@@H](CO)[C@H](O)O[C@H]12,"inconclusive [inhibitor, full curve]"
13,Cc1ccccc1NC1=C/C(=N\S(=O)(=O)c2ccc(C(=O)O)cc2)c2ccccc2C1=O,"inconclusive [inhibitor, single point]"
14,CCOC(=O)CSc1nc(N2CCOCC2)c2c(c1C#N)CC(C(C)C)OC2 (stereo not given),"inconclusive [inhibitor, partial curve]"
15,O=C(/C=C/c1ccccc1)CCN1CCOCC1,"inconclusive [inhibitor, single point]"
16,Cc1ccc(Nc2nc(N)c([N+](=O)[O-])c(N3CCOCC3)n2)cc1C,"inconclusive [inhibitor, partial curve]"
17,COc1ccccc1/C=C/C(=O)OCC(=O)c1c[nH]c2ccccc12,"inconclusive [inhibitor, single point]"
18,C[C@@H]1CN([C@H](C)CO)C(=O)c2cc(NC(=O)Nc3ccc(C(F)(F)F)cc3)ccc2O[C@H]1CN(C)S(=O)(=O)c1ccccc1,"inconclusive [inhibitor, single point]"
19,O=C(NCCS(=O)(=O)N1CCN(c2ccccc2F)CC1)c1ccc(Br)cc1,inactive
20,CC(C)(C)C(=O)NC(NC(=S)Nc1sc2c(c1C#N)CCCC2)C(Cl)(Cl)Cl (stereo not given),"inconclusive [inhibitor, single point]"
21,CCn1c2ccccc2c2cc(CN3CCN(S(=O)(=O)Cc4ccccc4)CC3)ccc21,"inconclusive [inhibitor, partial curve]"
22,CCCCn1nc(C(=O)NCC2COc3ccccc3O2)c2ccccc2c1=O (stereo not given),"inconclusive [inhibitor, single point]"
23,COc1ccccc1[C@@H]1C(c2cccc(C)c2)=NN(c2ccccc2)[C@H]1C(=O)N1CCOC1=O,inactive
24,C=Cn1cc[n+](CC(=O)c2ccc(OC)cc2)c1,"inconclusive [inhibitor, single point]"

row,SMILES,Potency
1,O=C(Nc1ccccc1-c1ccccc1)c1ccccc1,inactive
2,CCOc1cc(/C=C/C(=O)OCC(=O)NC2CCS(=O)(=O)C2)ccc1OCc1ccccc1 (stereo not given),active: 12.6 µM
3,CCn1c(SCc2ccccc2)nc2ccccc2c1=O,inactive
4,COc1ccccc1CCC(=O)OCC(=O)c1c(N)n(CC(C)C)c(=O)n(C)c1=O,inactive
5,Cc1c(C(=O)N2CCOCC2)c(S(=O)(=O)Nc2ccccc2)c(C)n1C,"inconclusive [inhibitor, single point]"
6,Nc1nc(Nc2ccccc2)nc(C(F)(F)F)n1,inactive
7,COc1cccc(C(=O)Nc2cccc3c2ccc2cccn23)c1,"inconclusive [inhibitor, partial curve]"
8,COc1ccc(NS(=O)(=O)c2ccc(Oc3ncccn3)cc2)cc1,"inconclusive [inhibitor, single point]"
9,CNc1ccc(Br)cc(C(=O)/C=C/c2ccc(OC)cc2)c1=O,inactive
10,CN(CC/C=C1/c2ccccc2CSc2ccccc21)CCCO,"inconclusive [inhibitor, partial curve]"
11,O=[N+]([O-])c1ccc2c(c1)C(N1CCOCC1)/C(=C/COc1ccc(F)cc1)O2 (stereo not given),"inconclusive [inhibitor, single point]"
12,O=C(NCc1nnc2c3ccccc3c(-c3ccccc3)nn12)c1ccc(Cl)cc1,"inconclusive [inhibitor, single point]"
13,O=C(NCCN1CCCC1)c1ccc2c(c1)N(Cc1cccc(Cl)c1)C(=O)c1ccccc1S2(=O)=O,"inconclusive [inhibitor, partial curve]"
14,O=C(CNS(=O)(=O)c1ccc(F)cc1)N1CCN(c2ccccc2)CC1,"inconclusive [inhibitor, single point]"
15,Nc1ccc(CSc2ccccc2)cc1,"inconclusive [inhibitor, single point]"
16,COc1ccc(-c2nc(CS(=O)CC(=O)NC3CCCc4ccccc43)c(C)o2)cc1OC (stereo not given),"inconclusive [inhibitor, full curve]"
17,Cc1ccc(NC(=O)C(C)c2ccc(-c3ccccc3)c(F)c2)c(C)c1 (stereo not given),"inconclusive [inhibitor, full curve, poor fit]"
18,Cc1ccccc1NC(=O)N1CCCC(c2nc(-c3ccc(F)cc3)no2)C1 (stereo not given),"inconclusive [inhibitor, single point]"
19,Cc1onc(-c2ccccc2)c1C(=O)OCC(=O)Nc1ccc(OC(F)(F)F)cc1,active: 11.2 µM
20,COc1ccc2[nH]c(C(=O)N/N=C/c3cc(OC)c(OC)c(OC)c3)cc2c1,"inconclusive [inhibitor, partial curve, poor fit]"
21,COCCn1nnnc1C(c1ccc(Cl)cc1)N1CCN(C(=O)c2ccco2)CC1 (stereo not given),inactive
22,O=C1/C(=C/c2ccc(Br)cc2)Oc2cc(O)ccc21,inactive
23,CCOc1ccc(CN2CCN(c3ncnc4scc(-c5ccccc5)c34)CC2)cc1,"inconclusive [inhibitor, single point]"
24,OCCN=C1CCCc2c1[nH]c1ccc(Br)cc21,active: 5.62 µM

row,SMILES,Potency
1,O=C1c2ccc(Oc3cccc([N+](=O)[O-])c3)cc2C(=O)N1c1ccccn1,inactive
2,Fc1cccc(CNC2CCN(CCc3ccccc3)CC2)c1,"inconclusive [inhibitor, partial curve]"
3,COc1ccc(-c2cc(C(=O)N(C)CC(=O)Nc3ccccc3Br)c3ccccc3n2)cc1OC,active: 20 µM
4,O=C1c2cccc(NCCCNCCO)c2C(=O)c2cccc(NCCCNCCO)c21,"inconclusive [inhibitor, single point]"
5,C=CCONC(=O)Cc1ccccc1,"inconclusive [inhibitor, single point]"
6,CCOC(=O)/C=c1/s/c(=C/c2ccc3cc(OC)ccc3c2)c(=O)n1CC(=O)NCc1ccc2c(c1)OCO2,inactive
7,COc1ccc(S(=O)(=O)N(C)C[C@H]2Oc3c(NC(=O)Nc4ccc(C(F)(F)F)cc4)cccc3C(=O)N([C@H](C)CO)C[C@@H]2C)cc1,"inconclusive [inhibitor, single point]"
8,CCOc1ncccc1C(=O)Nc1cc2c(cc1Br)OCCO2,"inconclusive [inhibitor, single point]"
9,COc1cc2cc(C)c(Br)c(OC)c2cc1OC,"inconclusive [inhibitor, single point]"
10,CNc1nc(SC)nc(N2CCOCC2)n1,"inconclusive [inhibitor, single point]"
11,COc1ccc(N2CCN(C(=O)Cn3nnc(-c4ccc(N(C)C)cc4)n3)CC2)cc1,inactive
12,CCCN(CC(=O)Nc1ccccc1C)C(=O)/C=C/c1ccc(OCC)c(OC)c1,"inconclusive [inhibitor, partial curve]"
13,CC1CCN(S(=O)(=O)CCNC(=O)c2ccccc2)CC1,inactive
14,COC(=O)c1cc(S(=O)(=O)NCC2CCN(Cc3ccc(Cl)cc3)CC2)cn1C,"inconclusive [inhibitor, partial curve]"
15,CCC(=O)N/N=C(\C)CC(=O)Nc1ccc2c(c1)OCCO2,"inconclusive [inhibitor, full curve]"
16,C/C(N)=C(/C#N)C(=O)CSc1cc(C)c2cc(C)cc(C)c2n1,active: 10 µM
17,CCCC(=O)c1cc2c(cc1NC(=O)CC)OCCO2,"inconclusive [inhibitor, single point]"
18,O=S(=O)(c1ccc(Br)cc1)c1nc(-c2ccco2)oc1NCCCn1ccnc1,inactive
19,Cc1ccccc1NC(=O)C1CCCN(c2ncnc3onc(-c4ccc(F)cc4)c23)C1 (stereo not given),inactive
20,COc1ccc(N2CCN(c3nc(NCCc4ccc(OC)c(OC)c4)nc(OC)n3)CC2)cc1,active: 11.2 µM
21,c1coc(-c2nc3c4c5c(sc4ncn3n2)CCCC5)c1,"inconclusive [inhibitor, partial curve, poor fit]"
22,Cc1cc(OCC(=O)Nc2ccccc2N2CCCCC2)ccc1C(C)C,"inconclusive [inhibitor, single point]"
